Experimental findings from patent US9193687B2 (priority 2007, dated 2015) are described below.

SMILES strings stand for the structures.

The first data set relates to CCRF-CEM/VBL. Briefly: cells. The note with it: Homo sapiens, 72 h, read-out: Cytotoxicity IC50, CCRF-CEM/VBL.
Regarding `O=C(Nc1ccc(N(CCCl)CCCl)cc1)Nc1c2ccccc2nc2ccccc12` [BO-1034, 1-acridin-9-yl-3-{4-[bis(2-chloroethyl)amino]phenyl}urea], the IC50 was determined as 380 nM.

Consider `O=C(Nc1ccc(N(CCCl)CCCl)cc1)Nc1cc(CO)cc(Nc2c3ccccc3nc3ccccc23)c1` [BO-1037, 1-[3-(acridin-9-ylamino)-5-hydroxymethylphenyl]-3-{4-[bis(2-chloroethyl)amino]phenyl}urea], for which the IC50 came to 64100 nM.

For `Cc1cc(NC(=O)Nc2ccc(N(CCCl)CCCl)cc2)c2ccccc2n1` [BO-1038, 1-{4-[bis(2-chloroethyl)amino]phenyl}-3-(2-methylquinolin-4-yl)urea], the IC50 is 660 nM.

For `Cc1cccc2c(Nc3cc(CO)cc(NC(=O)Nc4ccc(N(CCCl)CCCl)cc4)c3)c3ccccc3nc12` [BO-1050, 1-{4-[bis(2-chloroethyl)amino]phenyl}-3-[3-hydroxymethyl-5-(4-methylacridin-9-ylamino)phenyl]urea], the IC50 was 1800 nM.

With `Cc1ccc(Nc2c3ccccc3nc3c(C)cccc23)cc1NC(=O)Nc1ccc(N(CCCl)CCCl)cc1` [BO-1051], the IC50 was 130 nM.

`Cc1ccc(NC(=O)Nc2ccc(N(CCCl)CCCl)cc2)cc1Nc1c2cccc(C)c2nc2c(C(=O)NCCN(C)C)cccc12` [BO-1053, 9-[5-(3-{4-[bis(2-chloroethyl)amino]phenyl}ureido)-2-methyl-phenylamino]-5-methyl-acridine-4-carboxylic acid (2-dimethylaminoethyl)amide]: the IC50 came to 300 nM.

Take `O=C(Nc1cc(CO)cc(Nc2c3ccccc3nc3ccccc23)c1)Oc1ccc(N(CCCl)CCCl)cc1` [BO-1062, [3-(acridin-9-ylamino)-5-hydroxymethylphenyl]carbamic acid 4-[bis(2-chloroethyl)amino]phenyl ester]: the IC50 was 180 nM.

For the compound `Cc1cccc2c(Nc3cc(CO)cc(NC(=O)Oc4ccc(N(CCCl)CCCl)cc4)c3)c3ccccc3nc12` [BO-1063, [3-hydroxymethyl-5-(4-methylacridin-9-ylamino)phenyl]carbamic acid 4-[bis(2-chloroethyl)-amino]phenyl ester], the IC50 worked out at 130 nM.

For `Cc1ccc(Nc2c3ccccc3nc3c(C)cccc23)cc1NC(=O)Oc1ccc(N(CCCl)CCCl)cc1` [BO-1064, [2-methyl-5-(4-methylacridin-9-ylamino)phenyl]-carbamic acid 4-[bis(2-chloroethyl)amino]phenyl ester], the IC50 came to 160 nM.

Turning to `CCOC(=O)Nc1cc(COC(=O)Oc2ccc(N(CCCl)CCCl)cc2)cc(Nc2c3ccccc3nc3ccccc23)c1` [BO-1065, carbonic acid 3-(acridin-9-yl-amino)-5-ethoxycarbonylaminobenzyl ester 4-[bis(2-chloroethyl)amino]phenyl ester], the IC50 was determined as 480 nM.

For `COc1cc(NC(=O)Oc2ccc(N(CCCl)CCCl)cc2)cc(Nc2c3ccccc3nc3ccccc23)c1` [BO-1066, [3-(acridin-9-ylamino)-5-methoxyphenyl]carbamic acid 4-[bis(2-chloroethyl)amino]phenyl ester], the IC50 stood at 110 nM.

Consider `Cc1cc(NC(=O)Nc2ccc(N(CCCl)CCCl)cc2)cc(Nc2c3ccccc3nc3ccccc23)c1` [BO-1079, 1-[3-(acridin-9-ylamino)-5-methylphenyl]-3-{4-[bis(2-chloroethyl)amino]phenyl}urea], for which the IC50 stood at 600 nM.

As for `COc1ccc(Nc2c3ccccc3nc3ccccc23)cc1NC(=O)Nc1ccc(N(CCCl)CCCl)cc1` [BO-1148], the IC50 amounted to 50 nM.

Regarding `Cc1ccc(NC(=O)Nc2ccc(N(CCCl)CCCl)cc2)cc1Nc1c2ccccc2nc2c(C)cccc12` [BO-1149], the IC50 is 20 nM.

Turning to `COc1ccc(Nc2c3ccccc3nc3c(C)cccc23)cc1NC(=O)Nc1ccc(N(CCCl)CCCl)cc1` [BO-1154], the IC50 was determined as 20 nM.

As to `Cc1ccc(Nc2c3ccccc3nc3ccccc23)cc1NC(=O)Oc1ccc(N(CCCl)CCCl)cc1` [BO-1171], the IC50 worked out at 160 nM.

For `COc1ccc(Nc2c3ccccc3nc3ccccc23)cc1NC(=O)Oc1ccc(N(CCCl)CCCl)cc1` [BO-1172], the IC50 was determined as 120 nM.

As to `COc1ccc(Nc2c3ccccc3nc3c(C)cccc23)cc1NC(=O)Oc1ccc(N(CCCl)CCCl)cc1` [BO-1213], the IC50 turned out to be 190 nM.

With `COc1ccc2nc(C)cc(NNC(=O)Nc3ccc(N(CCCl)CCCl)cc3)c2c1` [BO-1228, N-{4-[bis(2-chloroethyl)amino]phenyl}-2-(6-methoxy-2-methyl-4-quinolinyl)hydrazinecarboxamide], the IC50 turned out to be 2020 nM.

For `Cc1cc(NNC(=O)Nc2ccc(N(CCCl)CCCl)cc2)c2ccccc2n1` [BO-1233, N-{4-[bis(2-chloroethyl)amino]phenyl}-2-(2-methyl-4-quinolinyl)hydrazinecarboxamide], the IC50 was 850 nM.

Take `Cc1cc(NNC(=O)Nc2ccc(N(CCCl)CCCl)cc2)c2cc(N(C)C)ccc2n1` [BO-1242]: the IC50 turned out to be 6950 nM.

As to `O=C(NNc1cc(-c2ccccc2)nc2cc3c(cc12)OCO3)Nc1ccc(N(CCCl)CCCl)cc1` [BO-1391], the IC50 was found to be 500 nM.

As to `O=C(NNc1cc(-c2ccccc2)nc2ccccc12)Nc1ccc(N(CCCl)CCCl)cc1` [BO-1393], the IC50 came out at 1220 nM.

Regarding `COc1ccc2nc(C)cc(Nc3cccc(NC(=O)Nc4ccc(N(CCCl)CCCl)cc4)c3)c2c1` [BO-1547], the IC50 worked out at 4130 nM.

Turning to `O=C(Nc1ccc(Nc2cc(-c3ccccc3)nc3ccccc23)cc1)Nc1ccc(N(CCCl)CCCl)cc1` [BO-2294], the IC50 is 2530 nM.

As for `O=C(Nc1ccc(N(CCCl)CCCl)cc1)Nc1cccc(Nc2cc(-c3ccccc3)nc3ccccc23)c1` [BO-2295], the IC50 came out at 2110 nM.

As to `CC[C@]1(O)C[C@@H]2CN(CCc3c([nH]c4ccccc34)[C@@](C(=O)OC)(c3cc4c(cc3OC)N(C)[C@H]3[C@@](O)(C(=O)OC)[C@H](OC(C)=O)[C@]5(CC)C=CCN6CC[C@]43[C@@H]65)C2)C1` [Vinblastine, reference compound], the IC50 was 500 nM.

The same data set, now with this note: Homo sapiens, read-out: Cytotoxicity IC50, CCRF-CEM/VBL.
In the case of `O=C(CCN1CCCCC1)Nc1ccc(NC(=O)Nc2ccc(N(CCCl)CCCl)cc2)cc1` [BO-2057], the IC50 was 6200 nM.

Take `O=C(CN1CCCC1)Nc1ccc(NC(=O)Nc2ccc(N(CCCl)CCCl)cc2)cc1` [BO-2093]: the IC50 amounted to 2000 nM.

As to `O=C(CN1CCCC1)Nc1cccc(NC(=O)Nc2ccc(N(CCCl)CCCl)cc2)c1` [BO-2151, N-(3-(3-(4-(bis(2-chloroethyl)amino)phenyl)ureido)-phenyl)-2-(pyrrolidin-1-yl)acetamide], the IC50 turned out to be 970 nM.

Regarding `CN(C)CC(=O)Nc1cccc(NC(=O)Nc2ccc(N(CCCl)CCCl)cc2)c1` [BO-2189, N-(3-(3-(4-(bis(2-chloroethyl)amino)phenyl)ureido)phenyl)-2-(dimethyl-amino)acetamide], the IC50 came out at 2700 nM.

A further data set concerns CCRF-CEM/VBL.
Assay: not given
Settings: not given
As for `CC[C@]1(O)C[C@@H]2CN(CCc3c([nH]c4ccccc34)[C@@](C(=O)OC)(c3cc4c(cc3OC)N(C)[C@H]3[C@@](O)(C(=O)OC)[C@H](OC(C)=O)[C@]5(CC)C=CCN6CC[C@]43[C@@H]65)C2)C1` [Vinblastine, reference compound], the “Resistance of CCRF-CEM/VBL compared with IC50 of the parent cell line” value stood at 680 fold.

The same data set, now with this note: read-out: Cytotoxicity IC50, CCRF-CEM/VBL; Table 1; XTT, 72-hr incubation.
`Cc1ccc(Nc2c3ccccc3nc3ccccc23)cc1NC(=O)Nc1ccc(N(CCCl)CCCl)cc1` [BO-1150]: the IC50 was 30 nM.

In the case of `Cc1cccc2c(Nc3cc(COC(=O)Nc4ccc(N(CCCl)CCCl)cc4)cc(NC(=O)OCC(C)C)c3)c3ccccc3nc12` [BO-1245], the IC50 was 6420 nM.
